Results taken from the supplement of paper PMC4604168 (melanoma cell lines).
The list shows a part of the results. Single values are uncertain, as repeats are few or missing.

Legend:
Assay in all cases: cell count relative to DMSO control; melanoma cells; higher = more viable cells
Conditions in all cases: library dose: standard library concentration; 72 h
SkMel30 = tested on: SkMel30
SkMel5 = tested on: SkMel5
UACC257 = tested on: UACC257
UACC62 = tested on: UACC62
WM115 = tested on: WM115
WM1716 = tested on: WM1716
WM1745 = tested on: WM1745
WM3526 = tested on: WM3526
WM3619 = tested on: WM3619
WM451Lu = tested on: WM451Lu
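Further: cells treated in 1,536-well plates, then fixed and DAPI-stained, with nuclei counted from automated high-throughput microscope images.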

| Structure (SMILES) | cell count (SkMel30) [%] | cell count (SkMel5) [%] | cell count (UACC257) [%] | cell count (UACC62) [%] | cell count (WM115) [%] | cell count (WM1716) [%] | cell count (WM1745) [%] | cell count (WM3526) [%] | cell count (WM3619) [%] | cell count (WM451Lu) [%] |
| --- | --- | --- | --- | --- | --- | --- | --- | --- | --- | --- |
| c1cc(-c2cnn3cc(-c4ccc(OCCN5CCCCC5)cc4)cnc23)ccn1 [Dorsomorphin] + COc1cc(N2CCC(N3CCN(C)CC3)CC2)ccc1Nc1ncc(Cl)c(Nc2ccccc2S(=O)(=O)C(C)C)n1 [NVP-TAE684] (first compound 2 µM, partner dose 0.4 µM) | 83 | 45.9 | 65.5 | 43 | 53.7 | 78 | 37.2 | 68.1 | 76.6 | 70.6 |
| N#Cc1c(O)c2c(-c3ccc(-c4ccccc4O)cc3)csc2[nH]c1=O + COc1cc2ncnc(Nc3ccc(Oc4ccccc4)cc3)c2cc1OC [SrcI1] (first compound 10 µM, partner dose 10 µM) | 95.4 | 66.3 | 88.9 | 95 | 78.6 | 98.2 | 73.4 | 75 | 72.2 | 102 |
| COC(=O)c1sccc1S(=O)(=O)Nc1ccc(Nc2ccccc2)cc1OC + COc1ccc(COc2ccc(Cc3cnc(N)nc3N)cc2OC)cc1 [GW2580] (first compound 5 µM, partner dose 5 µM) | 84 | 79 | 83.1 | 101 | 105 | 94.9 | 103 | 90.8 | 108 | 86.8 |
| CCN(CC)CCCCNc1ncc2cc(-c3cc(OC)cc(OC)c3)c(NC(=O)NC(C)(C)C)nc2n1 + COc1cc(N2CCC(N3CCN(C)CC3)CC2)ccc1Nc1ncc(Cl)c(Nc2ccccc2S(=O)(=O)C(C)C)n1 [NVP-TAE684] (first compound 0.5 µM, partner dose 0.4 µM) | 122 | 70 | 91.9 | 77.2 | 73.8 | 77.4 | 57 | 74.8 | 85.1 | 77.8 |
| Cc1cc([N+](=O)[O-])ccc1NS(=O)(=O)c1cc(Cl)ccc1Cl + c1cc(-c2cnn3cc(-c4ccc(OCCN5CCCCC5)cc4)cnc23)ccn1 [Dorsomorphin] (first compound 5 µM, partner dose 2 µM) | 95 | 42.4 | 50.6 | 93.2 | 55.4 | 59.9 | 62.5 | 68.2 | 67.7 | 84.8 |
| Oc1cc(-c2nc(-c3ccccc3)[nH]c2-c2ccncc2)ccc1Cl + Cn1cc(/C=C2\C(=O)Nc3cccnc32)c2ccccc21 [GW441756] (first compound 1 µM, partner dose 2 µM) | 71.1 | 46 | 83.8 | 44.3 | 46.5 | 86.7 | 44.8 | 44.7 | 77.2 | 47.7 |
| COc1ccc(COc2ccc(Cc3cnc(N)nc3N)cc2OC)cc1 + Cn1cc(/C=C2\C(=O)Nc3cccnc32)c2ccccc21 [GW441756] (first compound 5 µM, partner dose 2 µM) | 81 | 58.9 | 77 | 98.1 | 106 | 103 | 75.3 | 79.3 | 88.6 | 101 |
| O=S(=O)(c1ccccc1)N(CC(F)(F)F)c1ccc(C(O)(C(F)(F)F)C(F)(F)F)cc1 + CC(C)CCN1c2nc(Nc3cc(F)c(O)c(F)c3)ncc2N(C)C(=O)C1C [BID1870] (first compound 7 µM, partner dose 1 µM) | 85.4 | 64 | 78.7 | 69.9 | 92.5 | 95 | 82.1 | 66 | 79.6 | 85.5 |
| COc1cc(N2CCC(N3CCN(C)CC3)CC2)ccc1Nc1ncc(Cl)c(Nc2ccccc2S(=O)(=O)C(C)C)n1 + O=c1cc(-c2cccc3c2Sc2ccccc2S3)oc(N2CCOCC2)c1 [KU55933] (first compound 0.4 µM, partner dose 5 µM) | 103 | 68.9 | 82.2 | 81.1 | 86.1 | 79.7 | 43.7 | 56.8 | 77.3 | 71.6 |
| Oc1nc(-c2ccc(C(F)(F)F)cc2)nc2c1CSCC2 + O=c1cc(-c2cccc3c2Sc2ccccc2S3)oc(N2CCOCC2)c1 [KU55933] (first compound 10 µM, partner dose 5 µM) | 88.7 | 76.4 | 83.1 | 112 | 86.5 | 71.1 | 65 | 86.1 | 66.8 | 91.6 |
| COc1ccc2c(c1)CCC1C2CCC2(C)C(NCCCCCCN3C(=O)C=CC3=O)CCC12 (stereo not given) + Oc1cc(-c2nc(-c3ccccc3)[nH]c2-c2ccncc2)ccc1Cl [L779450] (first compound 2 µM, partner dose 1 µM) | 86.7 | 64 | 84.8 | 48.4 | 49 | 83.2 | 62.9 | 47 | 36.2 | 63.3 |
| COc1ccc2c(c1)CCC1C2CCC2(C)C(NCCCCCCN3C(=O)C=CC3=O)CCC12 (stereo not given) + O=c1cc(-c2cccc3c2Sc2ccccc2S3)oc(N2CCOCC2)c1 [KU55933] (first compound 2 µM, partner dose 5 µM) | 107 | 103 | 88.5 | 99.4 | 104 | 58.1 | 70.2 | 76.2 | 66.5 | 101 |
| O=S(=O)(c1ccccc1)N(CC(F)(F)F)c1ccc(C(O)(C(F)(F)F)C(F)(F)F)cc1 + COc1cc2ncnc(Nc3ccc(Oc4ccccc4)cc3)c2cc1OC [SrcI1] (first compound 7 µM, partner dose 10 µM) | 71.4 | 66.8 | 59.2 | 74.5 | 66.4 | 68.7 | 50.9 | 63 | 59.6 | 70.5 |
| COc1ccc(-c2ccc3c(N4CCOCC4)nc(N4C[C@@H](C)O[C@@H](C)C4)nc3n2)cc1CO + CC(C)CCN1c2nc(Nc3cc(F)c(O)c(F)c3)ncc2N(C)C(=O)C1C [BID1870] (first compound 0.1 µM, partner dose 1 µM) | 78 | 66.1 | 66.8 | 87.9 | 80.6 | 53.8 | 93.7 | 63.8 | 72.2 | 78.5 |
| CCCCCCCCCCCC1=C(O)C(=O)C=C(O)C1=O [Embelin] + O=c1cc(-c2cccc3c2Sc2ccccc2S3)oc(N2CCOCC2)c1 [KU55933] (first compound 6 µM, partner dose 5 µM) | 109 | 121 | 94.8 | 103 | 86 | 87.3 | 66.4 | 67.2 | 85.1 | 89 |
| O=S(=O)(c1ccccc1)N(CC(F)(F)F)c1ccc(C(O)(C(F)(F)F)C(F)(F)F)cc1 + COc1cc(N2CCC(N3CCN(C)CC3)CC2)ccc1Nc1ncc(Cl)c(Nc2ccccc2S(=O)(=O)C(C)C)n1 [NVP-TAE684] (first compound 7 µM, partner dose 0.4 µM) | 105 | 69.1 | 86.2 | 72.8 | 82.6 | 97.9 | 42.6 | 71.2 | 72.8 | 76.3 |
| N#Cc1c(O)c2c(-c3ccc(-c4ccccc4O)cc3)csc2[nH]c1=O + O=S(=O)(c1ccccc1)N(CC(F)(F)F)c1ccc(C(O)(C(F)(F)F)C(F)(F)F)cc1 [T0901317] (first compound 10 µM, partner dose 7 µM) | 93.1 | 76 | 92.6 | 95.2 | 101 | 95.8 | 74.8 | 72.2 | 93 | 91.9 |
| COC(=O)c1sccc1S(=O)(=O)Nc1ccc(Nc2ccccc2)cc1OC + COc1cc(N2CCC(N3CCN(C)CC3)CC2)ccc1Nc1ncc(Cl)c(Nc2ccccc2S(=O)(=O)C(C)C)n1 [NVP-TAE684] (first compound 5 µM, partner dose 0.4 µM) | 98.2 | 62.5 | 83.1 | 63.8 | 78.4 | 77.3 | 56.3 | 69.8 | 95.9 | 80.6 |
| COC(=O)c1sccc1S(=O)(=O)Nc1ccc(Nc2ccccc2)cc1OC + Oc1nc(-c2ccc(C(F)(F)F)cc2)nc2c1CSCC2 [XAV939] (first compound 5 µM, partner dose 10 µM) | 112 | 67.5 | 77.8 | 79.2 | 78.9 | 78.1 | 65.4 | 92.5 | 95.6 | 85 |
| COc1ccc(COc2ccc(Cc3cnc(N)nc3N)cc2OC)cc1 + Oc1nc(-c2ccc(C(F)(F)F)cc2)nc2c1CSCC2 [XAV939] (first compound 5 µM, partner dose 10 µM) | 110 | 77 | 73.1 | 73 | 109 | 78.4 | 91.2 | 92.9 | 71.7 | 109 |
| COc1ccc(-c2ccc3c(N4CCOCC4)nc(N4C[C@@H](C)O[C@@H](C)C4)nc3n2)cc1CO + Cc1cc([N+](=O)[O-])ccc1NS(=O)(=O)c1cc(Cl)ccc1Cl [FH535] (first compound 0.1 µM, partner dose 5 µM) | 78.7 | 61.6 | 62.7 | 56.1 | 83.4 | 77.9 | 61.7 | 60.4 | 102 | 78.6 |
| O=c1cc(-c2cccc3c2Sc2ccccc2S3)oc(N2CCOCC2)c1 + CC(C)CCN1c2nc(Nc3cc(F)c(O)c(F)c3)ncc2N(C)C(=O)C1C [BID1870] (first compound 5 µM, partner dose 1 µM) | 78.6 | 66.9 | 76.5 | 76.7 | 81.5 | 70.4 | 87.7 | 58.3 | 62 | 70.5 |
| COc1ccc(-c2ccc3c(N4CCOCC4)nc(N4C[C@@H](C)O[C@@H](C)C4)nc3n2)cc1CO + O=c1cc(-c2cccc3c2Sc2ccccc2S3)oc(N2CCOCC2)c1 [KU55933] (first compound 0.1 µM, partner dose 5 µM) | 74.8 | 64.6 | 90.6 | 87.5 | 94.2 | 77.7 | 84 | 69.1 | 46.4 | 79 |
| Oc1cc(-c2nc(-c3ccccc3)[nH]c2-c2ccncc2)ccc1Cl + O=C1NC(=O)/C(=C/c2ccc(-c3ccc(F)cc3O)o2)S1 [AS252424] (first compound 1 µM, partner dose 5 µM) | 69.5 | 57.1 | 86.3 | 62.7 | 46.7 | 66.8 | 52.1 | 47.9 | 82.7 | 45.4 |
